In article PMC12136788:
Some of the results follow.

T1: UNK ZnF1-3 (human, UniProt Q9C0B0 31-174)
T1 sequence: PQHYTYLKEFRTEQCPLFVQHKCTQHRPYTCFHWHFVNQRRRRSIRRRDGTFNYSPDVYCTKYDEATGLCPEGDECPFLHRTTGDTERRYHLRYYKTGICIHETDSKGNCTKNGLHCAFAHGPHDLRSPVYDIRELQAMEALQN

B1: chrX:16870723:16870724:-_ENSG00000102054_ENST00000404022|hu_hu|motif|central (ssRNA)
RNA: GGGAGUUCUACAGUCCGACGAUCUUUAUGAGAUUCGAAGGUAUGGAGUUUUAAUUUUAAGUUACGCAGAUCCCAUAAAGCGGCGGUCUUAUCCGCAGAGCCGGUGGCUAGAAUAAAUUCGCUGUAGGGAUUGAAUGAGAGGCACAACAGAGGAUUGAGCAUCA
B2: 88442248_88443343_1740_CDS_ENSMUSG00000028059_ENSMUST00000029694|mouse|control|control (ssRNA)
RNA: GGGAGUUCUACAGUCCGACGAUCCAUCUCAGGCGGUCCAGAACUAAUCAGAAACAUCCCUUUCGCCUGGUUGGCUAUGUCUCUUACGAUGAGGUUCUGCAAGGACACCACUGAGGGCUUGUCCAGAGACGUGAAAAUGUAUUUCAACAGAGGAUUGAGCAUCA
B3: chr2:42509997:42509998:+_ENSG00000143924_ENST00000318522|hu_mus|hu_hu_hu_mus_True|1_48 (ssRNA)
RNA: GGGAGUUCUACAGUCCGACGAUCUCGCUGAGUCCUCUCCUCAUAAUUAAACAGGACUACCACUGAGGCGAUAAAAUAAACUAUCUCCCCGGUCGGAAGCAGGUAUACAUUCGCUCUACAGUCCUUUCCUCGAUAACCAUAUGCCAACAGAGGAUUGAGCAUCA
B4: 37435025_37435145_6650_3pUTR_ENSMUSG00000026915_ENSMUST00000028279|mouse|control|control (ssRNA)
RNA: GGGAGUUCUACAGUCCGACGAUCUGAAUUAAUAACUUUUGCCACUGUUAAUACACUAUCUUCCAAAGUAGGGUAUUUAUUUACAACAAGGCCAAUUCCAUCAGGAAUUCCAUCAGAAAACUUAAGAUACUUGCACUGAUCAUACAACAGAGGAUUGAGCAUCA
B5: chr7:137662931:137662932:-_ENSMUSG00000030850_ENSMUST00000033139|mus_hu|motif|central (ssRNA)
RNA: GGGAGUUCUACAGUCCGACGAUCAGCGGCUGCCCGACUCGUUCUUGCAGUAGCCGCAGCGGUAGAAGUCCUCGCGGGGGAAAUAGUCCACGACGCUGGGCGAACCCCCCGCCCAGAAAGCCAUGGCCUCGGCCCCGCGAACGCCAACAGAGGAUUGAGCAUCA
B6: chr9:51896463:51896464:+_ENSMUSG00000032050_ENSMUST00000163153|mus_mus|FALSE|FALSE (ssRNA)
RNA: GGGAGUUCUACAGUCCGACGAUCCUUUCAACACUGUAACAACUGAUGUAGCAAUGAUAAUGUACACAAUGCAAAGAGAAAAAAAUAAAUCAGUAAAACUCCGAGGGAAGCCAAGUCCUUUAGCAAUAAGGACUAUCGCUGUGACAACAGAGGAUUGAGCAUCA
B7: chr14:72190480:72190481:+_ENSG00000197555_ENST00000381232|hu_hu|motif|central (ssRNA)
RNA: GGGAGUUCUACAGUCCGACGAUCAAAUCCCACGGAGUUUAUGGUUCCUUCGGGUUUUUUCCAUCCAAUCAGGUACUUGCGGGUAGCGCCCUGGCGAGGGUAAAAACUCCUAGGACCAGAGGAGGAGGAGGAAGAGGAGGAGAACAACAGAGGAUUGAGCAUCA
B8: 38068879_38068999_2573_3pUTR_ENSG00000156735_ENST00000287322|human|control|control (ssRNA)
RNA: GGGAGUUCUACAGUCCGACGAUCUUCUACUCACUGUGGCAUUUAAUGUUUCAUCUGUAACUCUCUAUCACAAUGCCCUCUAUAGAAGCAGCAAUAGUGAAAACAUAACUACACUUUGGGGAAAAAAAAAAAAAACAGGAAAAACAACAGAGGAUUGAGCAUCA
B9: chr1:137302511:137302512:-_ENSMUSG00000041879_ENSMUST00000161189|perfect_dup|FALSE|FALSE (ssRNA)
RNA: GGGAGUUCUACAGUCCGACGAUCUUAACGGUGCUUUUGAACUUGCUGUUCUCCAGUAGGGCAUGGACAAACUCAAAAAUGCUAAAGACGAGGUUCUCAAAGCCCAGGACUUCUCCAUCCGAAUCCACAGGAUCUUCCACUUCCCAACAGAGGAUUGAGCAUCA
B10: chr7:140404665:140404666:+_ENSG00000090266_ENST00000247866|hu_hu|hu_hu_hu_mus_False|88_88 (ssRNA)
RNA: GGGAGUUCUACAGUCCGACGAUCUGCUCCUACUCGUCCAGAGAGUUUACACCUUCAGUCCUCGUCAUCAGGAGGGAUUCCCAGUUCUUCAUCUGUCCACUGUGAAGGAUCUGGAUAUGAAAAGUGACCCAGCACAGCAUCCGACAACAGAGGAUUGAGCAUCA
B11: chr1:163112212:163112213:-_ENSG00000143248_ENST00000313961|hu_hu|hu_hu_hu_mus_False|8_58 (ssRNA)
RNA: GGGAGUUCUACAGUCCGACGAUCUUUUAUUAUCAGUAAGAGUGAGUUACAUACUAGGCAAAGUAUUGGAUACAAUAUUCUAAAGAUAAACACUAUUGGUCCAGAAUUUAAAACUUUAUGAGCGAAGGCUUACAAAUGGACUUACAACAGAGGAUUGAGCAUCA
B12: chr7:135612270:135612271:-_ENSG00000105887_ENST00000393085|hu_mus|hu_hu_hu_mus_False|88_88 (ssRNA)
RNA: GGGAGUUCUACAGUCCGACGAUCGUUUUUUUCUGAGAUGUUAAAUAUUCAGUGGAGGGAAAACAAAACUUAACCUUUUAUUAAUGCGUGUUGUACCAAAAGCAGACAUUUUAGCUUCAUUUAUUCAAAAAUAUUAACAUUAAGCAACAGAGGAUUGAGCAUCA
B13: chrX:71549400:71549401:+_ENSMUSG00000019087_ENSMUST00000019231|mus_hu|mus_mus_mus_hu_False|98_108 (ssRNA)
RNA: GGGAGUUCUACAGUCCGACGAUCGCAAGGAAGAGGACAAACCUUUCCAGUCCAGUGCGCUGCAGGGUGGGAAAGCAACAACACGGACACCGUCCCACCCUCAACCCCCCCACUGGCACAGGGUCACACAAUCUGGGUCAAAGACAACAGAGGAUUGAGCAUCA
B14: chrX:12253581:12253582:-_ENSMUSG00000064127_ENSMUST00000096495|mus_hu|FALSE|FALSE (ssRNA)
RNA: GGGAGUUCUACAGUCCGACGAUCUUAAAAAAGUCCCUGACUGACUAGGAAAGACAGCACAGUGCUCCAAAAAGAAACCCUGCAGAGAUGUAUUAAUACCAAAAACUCCAUUUGACCCUGGACAGGCCCAGGAUUCGGGAUUCUCAACAGAGGAUUGAGCAUCA
B15: chr18:52893488:52893489:-_ENSG00000196628_ENST00000354452|hu_hu|hu_hu_hu_mus_True|8_38 (ssRNA)
RNA: GGGAGUUCUACAGUCCGACGAUCUAUUUAGACCAUUUCCGCGGAGUUAUGGCAUUUACUCAGUGCUGAUAGGUGGAAAAACUACUUCAACAGGGAUUUUUUUUUUUCUUAAUACAUGCCAAGAUUGGUGUGGCUGUAAAACAGCAACAGAGGAUUGAGCAUCA
B16: chr6:114281168:114281169:-_ENSG00000196591_ENST00000368632|hu_hu|hu_hu_hu_mus_True|18_18 (ssRNA)
RNA: GGGAGUUCUACAGUCCGACGAUCUUCCAUUUUUCGGUAUAAACCAUAAUUUAGCAGCAAGUUAUGAGUCAUCCGGAUUCUAUGAGGCUUCAUGGGAUGACCCUGGCCAUAAUAAUAAUUUCCAAUAUCACCAUCAUAGUAGUACAACAGAGGAUUGAGCAUCA
B17: chr11:87793471:87793472:-_ENSMUSG00000020483_ENSMUST00000020775|mus_mus|mus_mus_mus_hu_False|8_88 (ssRNA)
RNA: GGGAGUUCUACAGUCCGACGAUCUGGACUUGAAAAUAAAAGAAUAAGCUAGAUUUCCCACCCCCCCACAUUGUCAACCCUACACGAGAGUUUUGAAGGCGACUCAUGAAAAUCAGCAGCUCAAACGAAUGACAACCCCCCACCCAACAGAGGAUUGAGCAUCA
B18: chr2:27445747:27445748:+_ENSG00000084774_ENST00000264705|hu_mus|motif|central (ssRNA)
RNA: GGGAGUUCUACAGUCCGACGAUCAGAGGCAGGGUCACCGGGUCCAUUACUUAGGAAGAGACCGUCAUAUUUCUGACUGUCGGACUCGUGGUCCCAGGGUACCACGGUAACUUCAGCCCCAAGCUGGCAGAGACAUCGGAUCUGCAACAGAGGAUUGAGCAUCA
B19: chr10:57939204:57939205:+_ENSMUSG00000003226_ENSMUST00000003310|mus_mus|FALSE|FALSE (ssRNA)
RNA: GGGAGUUCUACAGUCCGACGAUCGGGUGGCCUUAUUACUUCACCCUGCAUGGGCUGAACGAAAUUGGAUUUUCCAAAUUCUAUAACCUUUGAUUCUGCUGACCUUGAAGCGUGAGCUACAAGUGGAGGCUUUGUGAAAUACCCCAACAGAGGAUUGAGCAUCA
B20: chr11:20202655:20202656:-_ENSMUSG00000020142_ENSMUST00000109594|mus_hu|motif|central (ssRNA)
RNA: GGGAGUUCUACAGUCCGACGAUCUGUAGUUAAUAGUUAAGUUCCCCUCUAUCCAAACACAAACUUGCUUGGCUUGGAGCGGAAACGGUACACACACGCACACACACACAUGCAUAUACACAACACACAUGUGUGUAUAGAUAUCAACAGAGGAUUGAGCAUCA
B21: 120575372_120575492_6592_CDS_ENSG00000089154_ENST00000300648|human|control|control (ssRNA)
RNA: GGGAGUUCUACAGUCCGACGAUCCCAGCUCUCCUCCAGAACCACAGGGCUGGAGUCAUUGAAGAGGCGGAUCAGGCCCGAGACCAGGCUCCGCAGGUGGCUGGUGUAGUCAGCCUUUGAGCGGGAACAGUAGAUGUUGAGGAUCAACAGAGGAUUGAGCAUCA
B22: 51244685_51244805_938_3pUTR_ENSMUSG00000021395_ENSMUST00000095797|mouse|control|control (ssRNA)
RNA: GGGAGUUCUACAGUCCGACGAUCACGUUUACCACCUUGCUUGUAACCCCCAACAGACAGCUUUCUUGUAAGAGGGAAGACCCCCUCACACAGAUGCUUUGAAGAGGGAGGACUCCCCUCACAGAUGCCUUGUGUUCGAAUCAGCAACAGAGGAUUGAGCAUCA

The binders below were run against T1, UNK ZnF1-3 (assay: nsRBNS (natural sequence RNA bind-n-seq); RBNS binding buffer (assumed for nsRBNS): 25 mM Tris pH 7.5, 150 mM KCl, 3 mM MgCl2, 0.01% Triton X-100, 500 ug/ml BSA, 20 U/ml SUPERase-In, 4 C; UNK is unkempt and MSI1 is Musashi-1; names of the RNAs are library labels; protein concentration not given here; high values mean tight binding).

Row | Binder | binding signal [enrichment R]
1 | B1 | 1.61
2 | B2 | 1.07
3 | B3 | 1.04
4 | B4 | 0.714
5 | B5 | 0.542
6 | B6 | 1.45
7 | B7 | 1.92
8 | B8 | 2.22
9 | B9 | 1.01
10 | B10 | 1.27
11 | B11 | 0.966
12 | B12 | 2.62
13 | B13 | 1.08
14 | B14 | 1.33
15 | B15 | 1.07
16 | B16 | 0.871
17 | B17 | 1.91
18 | B18 | 1.13
19 | B19 | 0.875
20 | B20 | 0.255
21 | B21 | 1.5
22 | B22 | 0.707
